# Source: PubChem BioAssay (NCI)
#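 Five concentrations, 48 hours, 96-well plates. Abbreviation: GI50, concentration required for 50% inhibition of growth. Definition used: TGI = concentration required for complete inhibition of growth.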
# System: NCI-H322M lung
# Assay: NCI-60 cell line screen, 48 h
SMILES,GI50,TGI
COc1ccc(C(=O)/C=C/c2ccc(OCc3ccc(F)cc3)c(OC)c2)cc1OC,3.48 µM,> 100 µM
O=C([Se]C1C=CCCC1)c1ccc(C(=O)[Se]C2C=CCCC2)s1 (configuration not stated),0.409 µM,4.03 µM
Cn1cc(-c2cc(N)n3nc(-c4c[nH]c5ccccc45)cc3n2)c2cc(F)ccc21,2.46 µM,8.24 µM
N/C(=N\c1nc2ccccc2s1)NC(=O)Nc1ccccc1[N+](=O)[O-],0.479 µM,18.1 µM
COc1cc(/C=C/C(=O)c2ccc(NC(=O)CN3C(=O)NC(C)(c4ccccc4)C3=O)cc2)cc(OC)c1OC (configuration not stated),15.3 µM,69.3 µM
COc1cc(/C=N/NC(=O)c2ccc3nc(-c4ccc(Cl)cc4)[nH]c3c2)cc(OC)c1OC,8.29 µM,33.1 µM
